# ± gives the standard deviation of the averaged measurements. The list shows a part of the results.
# System: PfAP2-EXP AP2 domain (GST-tagged)
# Assay: gcPBM binding intensity (ln(normalized median fluorescence intensity)); higher = stronger DNA binding
# Procedure, shortened: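 Binding intensity values are the highest Masliner-normalised natural-log median intensity among replicate spots of either probe orientation. The binding step lasted 1 h in 1× PBS with 1% milk, 0.2 mg/ml BSA, 0.5% salmon testes DNA and 0.03% Triton X-100, using GST-tagged P. falciparum DNA-binding domains expressed in E. coli on an Agilent 4 × 180k array of primer-extended double-stranded 36-bp intergenic genomic probes plus negative controls. Alexa488 anti-GST antibody and a 488 nm scan detected bound protein.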
row,Sequence,gcPBM binding intensity (ln)
1,TACATACATACATACACACATACATATATATATATA [CACACA_site1387],10 ± 0.24
2,TCTTTTATTAGTAAAAGTACTTATATAAATATTATA [XGTACX_site5099],8.28 ± 0.28
3,TAGCTCGTTCGGAGCACACACATATAAATAAATATA [CACACA_site7002],8.38 ± 0.52
4,TATCAAATCCAAAGGGGTACATTTTGTTGTCCTAAT [XGTACX_site5575],8.36 ± 0.39
5,GAAAAAAAAAAAAATACACACAAATTGGTATATAAT [CACACA_site4369],8.41 ± 0.39
6,AATACTCTATTTTATAGTACATATATTATTAATCAC [XGTACX_site6622],8.36 ± 0.3
7,ATAGACAGCGCACAAACACACAAACACGCACGCACA [CACACA_site6349],8.66 ± 0.5
8,TAGGGATTATACCACACACACATACCCATAAATATA [CACACA_site5719],8.78 ± 0.52
9,ATATATATATATTATACACACGCCGAAAAAATAAAA [CACACA_site1551],9.51 ± 0.13
10,TTACGAAAAAACAAGAGTACATGATGTTATAAAATA [XGTACX_site1412],8.76 ± 0.32
11,TTTATTTTATCTAAAAGTACTTAAATTAGTGTATTT [XGTACX_site5696],8.38 ± 0.3
12,CGTTGTAGGGAATGTAGTACAGTTATTATTTTATTA [XGTACX_site2429],8.44 ± 0.26
13,TATATATATAAATACACACACACACCGATATATATA [CACACA_site5408],9.07 ± 0.45
14,TCATACATTTTCAGCCTGCACTTATATTTAATAATA [GTGCAC_site9863],8.86 ± 0.48
15,ATTTCCCCAACGTGGGTGCATATATTTATGTGTGAA [GTGCAC_site9439],9.12 ± 0.23
16,ATTATGTGAGGTAACTAAATATGTACGTAACGAAGA [CACACA_negctrl_site1400],9.12 ± 0.31
17,TATTAATTATTTTACTGTACTAATAATACTTTTATT [XGTACX_site2179],8.5 ± 0.44
18,ATTATATTTTTAAGTACACACATATAAATAAATATA [CACACA_site7682],8.43 ± 0.35
19,ATATATATATATGTGTGTACTTAAAAATATAATGCA [XGTACX_site7753],10.2 ± 0.14
20,TAATGTATAATTAATCGTACATTAGATTGTTGTGTT [XGTACX_site52],8.43 ± 0.51
21,AATTTTTTTTTTTTTTTTTCTTTTGTAATAAACCAT [XGTACX_negctrl_site334],8.18 ± 0.44
22,AAAAAAAAAAAACACACACACACACCGAAATATATA [CACACA_site4261],8.65 ± 0.65
23,TTCAGCATAAACACTTGTACATATATACTAAAAATT [XGTACX_site7272],8.51 ± 0.42
24,AAGGGAAAATAATAAAAGAAAAAGAAAAAAAAAAAA [CACACA_negctrl_site1518],8.36 ± 0.4

# Reference: the supplement of paper PMC11417369
